Measurements reported in the supplement of paper PMC11417369.
± gives the standard deviation of the averaged measurements. This is one part of the list.

Each sequence was assayed on PfAP2-EXP AP2 domain (GST-tagged) (assay: gcPBM binding intensity (ln(normalized median fluorescence intensity)); higher = stronger DNA binding).
Method in brief: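 GST-tagged P. falciparum DNA-binding domains, expressed in E. coli (about 25 μg on average), were applied for 1 h to an Agilent 4 × 180k array of primer-extended double-stranded 36-bp intergenic genomic probes plus negative controls. The binding buffer was 1× PBS with 1% milk, 0.2 mg/ml BSA, 0.5% salmon testes DNA and 0.03% Triton X-100. Bound protein was detected with Alexa488 anti-GST antibody and scanned at 488 nm. Binding intensity is the highest Masliner-normalised natural-log median intensity across replicate spots of either probe orientation.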

In order of falling “gcPBM binding intensity (ln)” value:
1. CCTAAAGTGTAAAATTCACACACATATATATATATA [CACACA_site8385]  10.2 ± 0.44
2. AATGTGATAATATACACACACGCATATATATATATA [CACACA_site323]  10.2 ± 0.2
3. ATATATATATATATATATATATATATATTTATATAT [GTGCAC_negctrl_site180]  10.1 ± 0.85
4. AGTACATTATAGAATACACACCTATATATATATATA [CACACA_site4447]  10.1 ± 0.23
5. ATATATATATATATATGTACGTATAATATATATATG [XGTACX_site2212]  10.1 ± 0.37
6. CGCACCCAAATATATACACACATATATATATATATA [CACACA_site1651]  10.1 ± 0.54
7. AAATAAATACTAGGCACACACACATATATATATATA [CACACA_site2079]  10 ± 0.45
8. ACATTCACAAAATTTTGTACACATATATATATATAT [XGTACX_site3518]  10 ± 0.26
9. ATATATATATGTGGATGTACATATATCTCTTATTAT [XGTACX_site1748]  9.69 ± 0.11
10. CAAACATATTAATGTACACACACCCACCCACAAACA [CACACA_site2752]  9.59 ± 0.65
11. TATGTGAATATAATCACACACAATACGGAAAGAGAC [CACACA_site7311]  9.46 ± 0.28
12. ACCCACGTAAATTAAGCATGCCTTCCGTTATATTTA [TGCATGCA_site365]  9.28 ± 0.56
13. ATTATTACTTTTTGAGTGCACATACACACAGACATA  9.195 ± 0.064
14. GTATTATCTGCTTTTTGTACACATATATTTAAAAAA [XGTACX_site7603]  9.18 ± 0.26
15. ATTTTTCATTCTGGACATGTTACCATTATATATATG [CACACA_negctrl_site61]  9.12 ± 0.46
16. TTTCAATGCATAAAAGTGCGCAATAATTTAAAGATC  9.11 ± 0.33
17. ATTATTCAGGTAAAGTGTACAGGAGAAAAATAAAAT [XGTACX_site334]  9.07 ± 0.32
18. GGAAAATGAAAACAAGGTACACATAAGAACAAACAA [XGTACX_site1221]  9.07 ± 0.77
19. ATCCTGAACAGAATATGTATAAACAGAAGGAAACAA [CACACA_negctrl_site1805]  8.98 ± 0.42
20. TTCTGTGTGTATTGGCGTACAATTATTTTGCCTACA [XGTACX_site205]  8.96 ± 0.38
21. TGGCTTTCCCTGCCGGTGCATTAACATTTTTTACAT [GTGCAC_site9914]  8.95 ± 0.23
22. AATATAAAAATGTTTACACACACACGGAAATATATT [CACACA_site7226]  8.94 ± 0.47
23. ATGAAACACTCCATAGTGCAAAATATATATTATATT  8.93 ± 0.32
24. TATTTTGTTCTTTCCACACACAAATACATATATTGT [CACACA_site4071]  8.91 ± 0.35
25. ATATGGGTGAACATATGTACATATATATATTGATAA [XGTACX_site8438]  8.89 ± 0.37
26. CTTTGTAGTTGGTCCACACACATATATGGAAGAATA [CACACA_site1280]  8.88 ± 0.52
27. CAAAAATAATTTAGGTGTACAAATTTGACAAAAAAA [XGTACX_site188]  8.85 ± 0.3
28. TTAATGGAAAAATAGGCACACACACCGATATACATA [CACACA_site8356]  8.84 ± 0.5
29. TTTTATTTTTCTAGTAGTACTTCTTTTTATAATATA [XGTACX_site1181]  8.82 ± 0.49
30. TATATAAATAGACACACACACACATATAAATAAATA [CACACA_site7855]  8.82 ± 0.45
31. CATATATATATTTTTTGTACATATATTTTTACATAT [XGTACX_site8419]  8.81 ± 0.43
32. AAAAAGAAGAAGAAATGTACGTAACTATATATTTAT [XGTACX_site4362]  8.8 ± 0.48
33. CCATTTGATAATAATGCACACCACATATATTTATAT [CACACA_site9002]  8.805 ± 0.035
34. TAAATCATGGGATAAGCATGCGCGCACATGTTTGTT [TGCATGCA_site768]  8.79 ± 0.3
35. TACACGCATAGACACACACACACACGCATATAAATA [CACACA_site6446]  8.77 ± 0.45
36. ATTATTGTAATATTAGCACACATTACCTCACTACAA [CACACA_site2560]  8.76 ± 0.32
37. ATTGTAAGGAAACACACACACATATATATGTATATA [CACACA_site676]  8.74 ± 0.35
38. ATTAAAAAAATATACGCACACAAAATGTAATAACAA [CACACA_site2439]  8.74 ± 0.35
39. TAATACATACACACATGTACATACAGAAATAAATAA [XGTACX_site3245]  8.72 ± 0.46
40. TGTTTTTATCCTTATGGTACAGTATAATACTTACAG [XGTACX_site6381]  8.72 ± 0.45
41. AAAACACTTATGGATTGTACAATAAAAATTATATTA [XGTACX_site7042]  8.71 ± 0.45
42. TTACATAATTTATGTACACACGCAAATACTTATAAT [CACACA_site4331]  8.7 ± 0.33
43. ACACAAAAATAAAAATGTACAAATTAAAAAAAATGA [XGTACX_site2083]  8.68 ± 0.45
44. CGATTTTTTAAGTTTGTGCACTTAAAAACTATAACA  8.675 ± 0.007
45. TAATAATAGAGACACACACACATTTTTAATAATACA [CACACA_site6691]  8.66 ± 0.42
46. TTTATTTTTGAAGTTGCACACACAAAAATAAAAAGT [CACACA_site8030]  8.66 ± 0.36
47. TTGTACTACAATCCTTTATTTATTTAAACCTGTATG [CACACA_negctrl_site428]  8.66 ± 0.19
48. TATGTGAATATTGAGGTGCGGTTGTTAAAATTTATA [GTGCAC_site9915]  8.64 ± 0.27
49. AGTTTACACCTTGTGAGTACATACATACATATATAT [XGTACX_site8793]  8.63 ± 0.36
50. TTTTTTTCAATATTTGCACACGATTAAAATATTTAA [CACACA_site5266]  8.63 ± 0.18
51. CTGTGTAATTTAAATTGTACGTTTGAAAAAAATAAA [XGTACX_site5667]  8.62 ± 0.3
52. TTAATATTCCAGCTTTGTACATATATATATTATAAA [XGTACX_site7954]  8.61 ± 0.46
53. AATAGGGTCATTCAAAAAAAAAAAAAATAATAATAC [CACACA_negctrl_site644]  8.61 ± 0.46
54. TAATTTGTTATGTATTGTACAAATAATATATGATAT [XGTACX_site1985]  8.6 ± 0.28
55. TATATGTAATATTATACATGCATACATAATATATAT [TGCATGCA_site558]  8.6 ± 0.26
56. ATGTTGTACAAACACACACACAAAAAAAAAATAAAA [CACACA_site2406]  8.59 ± 0.59
57. TATATGTTTAATTTCACACACAAATATGCATTTTAA [CACACA_site7881]  8.59 ± 0.42
58. TTGGTATATTATAAAAGTACACATAATAAAAAATTT [XGTACX_site7985]  8.57 ± 0.36
59. ATAACTATAATAATCATACACACCAAAGAGAATATT [CACACA_site6970]  8.57 ± 0.13
60. AAATCACATAAAAATAGTACTTTTTTTTTTTTTTTT [XGTACX_site2696]  8.56 ± 0.25
61. TTTTTTTTTTATAAGGCACACATGAATATTTATACA [CACACA_site1316]  8.55 ± 0.014
62. TATTATATATATATATGTACATATTGTATGTTATAT [XGTACX_site5303]  8.54 ± 0.35
63. AAAAGGAATTATAGGAAATAAATATATACAAATATA [TGCATGCA_negctrl_site528]  8.53 ± 0.39
64. ACATTAACATTGTTGGTGCAAAATTAATATGTTTTT [GTGCAC_site9673]  8.52 ± 0.13
65. TTTATTTATAGGTATACACACTTTAATTAAAAGTTG [CACACA_site7232]  8.51 ± 0.44
66. TTTTACTAAATATATACACACATTATGCATATATAT [CACACA_site3287]  8.51 ± 0.38
67. AGTAGTCTGGAGAAGAGTACACAGTATCTGGTAGCT [XGTACX_site2042]  8.48 ± 0.47
68. TTTGTTCTATGGAGTTTAAAATGTAATATATATTAA [GTGCAC_negctrl_site151]  8.45 ± 0.55
69. TTAAATATTTTTTATACACACATTTCTTATTTAACT [CACACA_site229]  8.45 ± 0.49
70. TATTTTATAAATACAAGTAAAATTAAATATATAATA [XGTACX_negctrl_site221]  8.44 ± 0.33
71. TTTTTTTTTTTTTTGTCACACACCTTCATAAGAAAA [CACACA_site1166]  8.43 ± 0.54
72. TATACTATACAACACATACACACAAAAAAAAAAAAA [CACACA_site537]  8.43 ± 0.59
73. TATATGTCAATATCTACACACATATAGGTAATTATT [CACACA_site7475]  8.42 ± 0.52
74. AGGAGGATATTACACAGTACCCAGGAAATCTACGGA [XGTACX_site4878]  8.38 ± 0.59
75. TGATAATATTATATATGTACATATATGTATATTTTT [XGTACX_site7193]  8.37 ± 0.37
76. TAATTATTATTAATAGTACACACTATGGCATTTCAA [CACACA_site2488]  8.36 ± 0.36
77. AATTCAATTGAGCAAAATTCAAATAAATTAAAAAGA [XGTACX_negctrl_site71]  8.35 ± 0.5
78. TTTATTTATTAAGAATGTACATGTATTTGTTAAATA [XGTACX_site4465]  8.34 ± 0.23
79. TATTTCAAAATAAAATAAAATATATATATATGTATA [XGTACX_negctrl_site416]  8.33 ± 0.21
80. TTTTGTTTAAAAAAAAAAAACAAAAAAAAGCAATTA [CACACA_negctrl_site314]  8.32 ± 0.51
81. CACACCATATAATATATATATATGTATATATTTATA [CACACA_negctrl_site397]  8.29 ± 0.28
82. TAAAATTAATAAAATATTTTCACTTAATATATATAA [CACACA_negctrl_site1550]  8.28 ± 0.49
83. CTATTTTTCCTGAAATGTACAAGAATTTTATTTGAT [XGTACX_site8867]  8.28 ± 0.25
84. TAAAAGGAACAAAATTGTACTTAAAAGACAAAGTTA [XGTACX_site7661]  8.27 ± 0.26
85. AATTATTAAATATGTACACACGTACATTTTATAAAT [CACACA_site5341]  8.27 ± 0.18
86. AAATTTGCTTTACCAGTGCAAAAAAAAAAAAAAAAA  8.25 ± 0.18
87. ATATATATTAATAGTTGTACTATTATAATATTACAA [XGTACX_site1213]  8.23 ± 0.25
88. TTTTACATAAATTATAAATATATAAAATAAAAAAAA [CACACA_negctrl_site1499]  8.22 ± 0.54
89. TTTTAAAGAAAAAAATGTACAAAATTTTTATTTTAA [XGTACX_site1496]  8.02 ± 0.28
